Results from patent US20210130346A1, “Bromodomain Inhibitors” (AbbVie Inc., priority 2017, published 2021).

molecular target: BRD4 (BDII_E352-M457) (Homo sapiens, UniProt O60885); assay: TR-FRET bromodomain binding assay, BRD4 second bromodomain (BDII); conditions: mean Ki; 4 nM His tagged BRD4 (BDII_E352-M457), 30 nM Alexa647 probe; Ki calculated from IC50, probe Kd and probe concentration
Protocol: A time-resolved fluorescence resonance energy transfer (TR-FRET) assay was used to determine the affinities of compounds of the Examples listed in Table 1 for each bromodomain of BRD4. […] An Alexa647-labeled BET-inhibitor was used as the fluorescent probe in the assay.
Compound dilution series were prepared in DMSO via an approximately 3-fold serial dilution. Compound dilutions were added directly into white, low-volume assay plates (Perkin Elmer Proxiplate 384 Plus# 6008280) using a Labcyte Echo in conjunction with Labcyte Access and Thermo Multidrop CombinL robotics. Compounds were then suspended in eight microliters (μL) of assay buffer (20 mM Sodium Phosphate, pH 6.0, 50 mM NaCl, 1 mM Ethylenediaminetetraacetic acid disodium salt dihydrate, 0.01% Triton X-100, 1 mM DL-Dithiothreitol) containing His-tagged bromodomain, Europium-conjugated anti-His antibody (Invitrogen PV5596) and Alexa-647-conjugated probe.
After a one-hour equilibration at room temperature, TR-FRET ratios were determined using an Envision multilabel plate reader (Ex 340, Em 495/520).
TR-FRET data were normalized to the means of 24 no-compound controls (“high”) and 8 controls containing 1 μM un-labeled probe (“low”). Percent inhibition was plotted as a function of compound concentration and the data were fit with the 4 parameter logistic equation to obtain IC50s. Inhibition constants (Ki) were calculated from the IC50s, probe Kd and probe concentration.

Going from `CN1C(=O)[C@@]2(C[C@H]2c2cn(C)c(=O)c3[nH]c(-c4cnn(C)c4)cc23)c2ccccc21` (racemic) [Example 33, rac-(1R,2S)-1′-methyl-2-[6-methyl-2-(1-methyl-1H-pyrazol-4-yl)-7-oxo-6,7-dihydro-1H-pyrrolo[2,3-c]pyridin-4-yl]spiro[cyclopropane-1,3′-indol]-2′(1H)-one] to `CN1C(=O)[C@@]2(C[C@H]2c2cn(C)c(=O)c3[nH]c(-c4nccn4C)cc23)c2ccccc21` (racemic) [Example 41, rac-(1R,2S)-1′-methyl-2-[6-methyl-2-(1-methyl-1H-imidazol-2-yl)-7-oxo-6,7-dihydro-1H-pyrrolo[2,3-c]pyridin-4-yl]spiro[cyclopropane-1,3′-indol]-2′(1H)-one], the Ki rises from 3.31 nM to 18.2 nM (5.5-fold). The first binds more tightly here.

First: Cc1nn(C)cc1-c1cc2c([C@@H]3C[C@@]34C(=O)N(C)c3ccccc34)cn(C)c(=O)c2[nH]1 (racemic) [Example 36, rac-(1R,2S)-2-[2-(1,3-dimethyl-1H-pyrazol-4-yl)-6-methyl-7-oxo-6,7-dihydro-1H-pyrrolo[2,3-c]pyridin-4-yl]-1′-methylspiro[cyclopropane-1,3′-indol]-2′(1H)-one]
Second: CN1C(=O)[C@@]2(C[C@H]2c2cn(C)c(=O)c3[nH]c(-c4cn(C)cn4)cc23)c2ccccc21 (racemic) [Example 43, rac-(1R,2S)-1′-methyl-2-[6-methyl-2-(1-methyl-1H-imidazol-4-yl)-7-oxo-6,7-dihydro-1H-pyrrolo[2,3-c]pyridin-4-yl]spiro[cyclopropane-1,3′-indol]-2′(1H)-one]
The Ki of the first is 37-fold higher: 283 nM for the first, 7.63 nM for the second. The second binds more tightly here.

First: CN1C(=O)[C@@]2(C[C@H]2c2cn(C)c(=O)c3[nH]c(-c4cc[nH]n4)cc23)c2ccccc21 (racemic) [Example 37, rac-(1R,2S)-1′-methyl-2-[6-methyl-7-oxo-2-(1H-pyrazol-3-yl)-6,7-dihydro-1H-pyrrolo[2,3-c]pyridin-4-yl]spiro[cyclopropane-1,3′-indol]-2′(1H)-one]
Second: CN1C(=O)[C@@]2(C[C@@H]2c2cn(C)c(=O)c3[nH]c(-c4cc[nH]n4)cc23)c2ccccc21 (racemic) [Example 38, rac-(1R,2R)-1′-methyl-2-[6-methyl-7-oxo-2-(1H-pyrazol-3-yl)-6,7-dihydro-1H-pyrrolo[2,3-c]pyridin-4-yl]spiro[cyclopropane-1,3′-indol]-2′(1H)-one]
The Ki of the first is 95-fold lower: 9.45 nM for the first, 896 nM for the second.

First: Cc1cc(-c2cc3c([C@@H]4C[C@@]45C(=O)N(C)c4ccccc45)cn(C)c(=O)c3[nH]2)on1 (racemic) [Example 39, rac-(1R,2S)-1′-methyl-2-[6-methyl-2-(3-methyl-1,2-oxazol-5-yl)-7-oxo-6,7-dihydro-1H-pyrrolo[2,3-c]pyridin-4-yl]spiro[cyclopropane-1,3′-indol]-2′(1H)-one]
Second: Cc1cc(-c2cc3c([C@H]4C[C@@]45C(=O)N(C)c4ccccc45)cn(C)c(=O)c3[nH]2)on1 (racemic) [Example 40, rac-(1R,2R)-1′-methyl-2-[6-methyl-2-(3-methyl-1,2-oxazol-5-yl)-7-oxo-6,7-dihydro-1H-pyrrolo[2,3-c]pyridin-4-yl]spiro[cyclopropane-1,3′-indol]-2′(1H)-one]
The Ki of the first is 110-fold lower: 4.08 nM for the first, 450 nM for the second.

Compared with `CN1C(=O)[C@@]2(C[C@H]2c2cn(C)c(=O)c3[nH]c(-c4ncco4)cc23)c2ccccc21` (racemic) [Example 42, rac-(1R,2S)-1′-methyl-2-[6-methyl-2-(1,3-oxazol-2-yl)-7-oxo-6,7-dihydro-1H-pyrrolo[2,3-c]pyridin-4-yl]spiro[cyclopropane-1,3′-indol]-2′(1H)-one], `CN1C(=O)[C@@]2(C[C@H]2c2cn(C)c(=O)c3[nH]c(-c4ccncn4)cc23)c2ccccc21` (racemic) [Example 55, rac-(1R,2S)-1′-methyl-2-[6-methyl-7-oxo-2-(pyrimidin-4-yl)-6,7-dihydro-1H-pyrrolo[2,3-c]pyridin-4-yl]spiro[cyclopropane-1,3′-indol]-2′(1H)-one] is 3.3-fold lower in Ki: 120 nM for the first, 36.6 nM for the second. The second binds more tightly here.

First: CN1C(=O)[C@@]2(C[C@H]2c2cn(C)c(=O)c3[nH]c(-c4cncn4C)cc23)c2ccccc21 (racemic) [Example 44, rac-(1R,2S)-1′-methyl-2-[6-methyl-2-(1-methyl-1H-imidazol-5-yl)-7-oxo-6,7-dihydro-1H-pyrrolo[2,3-c]pyridin-4-yl]spiro[cyclopropane-1,3′-indol]-2′(1H)-one]
Second: CN1C(=O)[C@@]2(C[C@H]2c2cn(C)c(=O)c3[nH]c(-c4cccnc4)cc23)c2ccccc21 (racemic) [Example 47, rac-(1R,2S)-1′-methyl-2-[6-methyl-7-oxo-2-(pyridin-3-yl)-6,7-dihydro-1H-pyrrolo[2,3-c]pyridin-4-yl]spiro[cyclopropane-1,3′-indol]-2′(1H)-one]
The Ki of the first is 2.2-fold higher: 17.9 nM for the first, 8.16 nM for the second. The second binds more tightly here.

First: CN1C(=O)[C@@]2(C[C@H]2c2cn(C)c(=O)c3[nH]c(-c4ccccn4)cc23)c2ccccc21 (racemic) [Example 45, rac-(1R,2S)-1′-methyl-2-[6-methyl-7-oxo-2-(pyridin-2-yl)-6,7-dihydro-1H-pyrrolo[2,3-c]pyridin-4-yl]spiro[cyclopropane-1,3′-indol]-2′(1H)-one]
Second: Cc1ccnc(-c2cc3c([C@@H]4C[C@@]45C(=O)N(C)c4ccccc45)cn(C)c(=O)c3[nH]2)c1 (racemic) [Example 46, rac-(1R,2S)-1′-methyl-2-[6-methyl-2-(4-methylpyridin-2-yl)-7-oxo-6,7-dihydro-1H-pyrrolo[2,3-c]pyridin-4-yl]spiro[cyclopropane-1,3′-indol]-2′(1H)-one]
The Ki of the first is 81-fold lower: 27.6 nM for the first, 2230 nM for the second. The first binds more tightly here.

First: CN1C(=O)[C@@]2(C[C@H]2c2cn(C)c(=O)c3[nH]c(-c4ccncc4)cc23)c2ccccc21 (racemic) [Example 50, rac-(1R,2S)-1′-methyl-2-[6-methyl-7-oxo-2-(pyridin-4-yl)-6,7-dihydro-1H-pyrrolo[2,3-c]pyridin-4-yl]spiro[cyclopropane-1,3′-indol]-2′(1H)-one]
Second: CN1C(=O)[C@@]2(C[C@H]2c2cn(C)c(=O)c3[nH]c(-c4ccnnc4)cc23)c2ccccc21 (racemic) [Example 56, rac-(1R,2S)-1′-methyl-2-[6-methyl-7-oxo-2-(pyridazin-4-yl)-6,7-dihydro-1H-pyrrolo[2,3-c]pyridin-4-yl]spiro[cyclopropane-1,3′-indol]-2′(1H)-one]
The Ki of the first is 1.9-fold lower: 9.44 nM for the first, 17.9 nM for the second. The first binds more tightly here.

First: CN1C(=O)[C@@]2(C[C@H]2c2cn(C)c(=O)c3[nH]c(-c4ccnc(C(F)(F)F)c4)cc23)c2ccccc21 (racemic) [Example 51, rac-(1R,2S)-1′-methyl-2-{6-methyl-7-oxo-2-[2-(trifluoromethyl)pyridin-4-yl]-6,7-dihydro-1H-pyrrolo[2,3-c]pyridin-4-yl}spiro[cyclopropane-1,3′-indol]-2′(1H)-one]
Second: CN1C(=O)[C@@]2(C[C@H]2c2cn(C)c(=O)c3[nH]c(-c4cncnc4)cc23)c2ccccc21 (racemic) [Example 54, rac-(1R,2S)-1′-methyl-2-[6-methyl-7-oxo-2-(pyrimidin-5-yl)-6,7-dihydro-1H-pyrrolo[2,3-c]pyridin-4-yl]spiro[cyclopropane-1,3′-indol]-2′(1H)-one]
The Ki of the first is 2.9-fold lower: 3.36 nM for the first, 9.68 nM for the second.

First: CN1C(=O)[C@@]2(C[C@@]2(C)c2cn(C)c(=O)c3[nH]c(C(=O)NC4CC4)cc23)c2ccc(OC(F)(F)F)cc21 (racemic) [Example 58, rac-N-cyclopropyl-4-[(1R,2S)-1′,2-dimethyl-2′-oxo-6′-(trifluoromethoxy)-1′,2′-dihydrospiro[cyclopropane-1,3′-indol]-2-yl]-6-methyl-7-oxo-6,7-dihydro-1H-pyrrolo[2,3-c]pyridine-2-carboxamide]
Second: CN1C(=O)[C@@]2(C[C@H]2c2cn(C)c(=O)c3[nH]c(C(=O)NC4CC4)cc23)c2cc(F)ccc21 (single isomer, unassigned) [Example 18]
The Ki of the first is 4.1-fold higher: 1700 nM for the first, 418 nM for the second. The second binds more tightly here.

First: CN1C(=O)[C@]2(C[C@@H]2c2cn(C)c(=O)c3[nH]c(C(=O)O)cc23)c2ccccc21 (single isomer, unassigned) [Example 6]
Second: CN1C(=O)[C@@]2(C[C@H]2c2cn(C)c(=O)c3[nH]c(C(=O)O)cc23)c2ccccc21 (single isomer, unassigned) [Example 7]
The Ki of the first is 2-fold lower: 2750 nM for the first, 5490 nM for the second. The first binds more tightly here.

Going from `Cn1cc([C@H]2C[C@]23C(=O)Nc2ccccc23)c2cc(C(=O)NC3CC3)[nH]c2c1=O` (single isomer, unassigned) [Example 20] to `Cn1cc([C@@H]2C[C@@]23C(=O)Nc2ccccc23)c2cc(C(=O)NC3CC3)[nH]c2c1=O` (single isomer, unassigned) [Example 21], the Ki rises from 12.8 nM to 1150 nM (90-fold).

Compared with `CN1C(=O)[C@]2(C[C@@H]2c2cn(C)c(=O)c3[nH]c(C(=O)NC4CC4)cc23)c2ccccc21` [Example 3, N-cyclopropyl-6-methyl-4-[(1S,2R)-1′-methyl-2′-oxo-1′,2′-dihydrospiro[cyclopropane-1,3′-indol]-2-yl]-7-oxo-6,7-dihydro-1H-pyrrolo[2,3-c]pyridine-2-carboxamide], `CN1C(=O)[C@@]2(C[C@H]2c2cn(C)c(=O)c3[nH]c(C(=O)NC4CC4)cc23)c2ccccc21` [Example 4, N-cyclopropyl-6-methyl-4-[(1R,2S)-1′-methyl-2′-oxo-1′,2′-dihydrospiro[cyclopropane-1,3′-indol]-2-yl]-7-oxo-6,7-dihydro-1H-pyrrolo[2,3-c]pyridine-2-carboxamide] is 59-fold higher in Ki: 4.53 nM for the first, 267 nM for the second.
